Whole data set: some 33,000 sequences, median “E-score (-0.5 to 0.5)” near -0.017, cut for the highest 2% near 0.3. Some of the results follow.
biological target: T1, Sut1 (UniProt P53032); assay: PBM E-score (8-mer binding enrichment) (E-score (-0.5 to 0.5)); higher = stronger / more preferred TF binding; most listed sequences are background and not binding sites; settings: protein concentration: 200 nM; construct: GST-full length
T1 sequence: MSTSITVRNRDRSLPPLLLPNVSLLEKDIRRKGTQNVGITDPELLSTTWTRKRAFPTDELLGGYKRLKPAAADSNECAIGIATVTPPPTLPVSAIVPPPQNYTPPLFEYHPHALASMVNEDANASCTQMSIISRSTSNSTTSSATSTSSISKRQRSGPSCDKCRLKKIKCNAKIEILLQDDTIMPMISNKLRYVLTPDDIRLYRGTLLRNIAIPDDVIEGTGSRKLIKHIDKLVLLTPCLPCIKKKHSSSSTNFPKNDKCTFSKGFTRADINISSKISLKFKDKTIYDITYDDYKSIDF
Procedure, shortened: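 Detection of bound protein used fluorescent anti-GST, with scans normalised by masliner. The proteins were GST-tagged yeast transcription factors applied at about 100-200 nM to universal all-10-mer Agilent arrays made double-stranded by primer extension. Each ungapped eight-base word, pooled with its reverse complement, was scored with an E-score from the Universal PBM Analysis Suite.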

| Sequence | PBM E-score |
| --- | --- |
| GTCTCGCA | -0.159 |
| GAAGTACC | -0.0675 |
| ACAACACC | 0.0788 |
| AATCGGGT | 0.132 |
| CTTAAAAC | 0.238 |
| CGCTAGAC | -0.0914 |
| CGCCGGCG | 0.375 |
| CATTAAAG | 0.111 |
| CAAGCAGG | -0.127 |
| AATCTGAA | 0.165 |
| ACGGCCAA | 0.0686 |
| CGTCTCGC | -0.184 |
| AGCAACTC | 0.065 |
| CTCCGTTC | 0.32 |
| TAGCATCA | -0.0462 |
| TCCCAAAA | 0.108 |
| GCATCAGC | -0.144 |
| AATCTAGC | -0.181 |
| CACAGACC | -0.148 |
| CACATAGA | -0.0784 |
| CACTCTCA | -0.0711 |
| GAAATTAA | 0.333 |

| Sequence | PBM E-score |
| --- | --- |
| GGCGTGGA | -0.197 |
| ACAGATCA | 0.115 |
| TCATAACA | 0.0613 |
| CCTTACGA | -0.0994 |
| ATCTCTAA | 0.114 |
| AGAACCCG | -0.162 |
| TAAAATTA | 0.34 |
| ATTTATCC | 0.33 |
| CGATACCC | -0.211 |
| AATAACGA | 0.15 |
| AGTGTTCG | 0.0213 |
| ATACACGA | 0.094 |
| AAGGTCCT | -0.239 |
| AGACAGGC | -0.1 |
| CATACATA | 0.121 |
| AATCGAGT | 0.00417 |
| ATAATAGA | 0.244 |
| GATGTTTA | 0.04 |
| CGACCACC | -0.234 |
| AATTGAAT | 0.314 |
| CCACCACC | -0.143 |
| ATCCGCGG | 0.032 |

| Sequence | PBM E-score |
| --- | --- |
| CGTGCACG | -0.0955 |
| GTGACCCA | -0.197 |
| CTACCACC | -0.163 |
| CGGTAAAG | 0.167 |
| GATCGCAC | -0.176 |
| ACTCAAGC | -0.0122 |
| ACGATCTA | -0.0789 |
| CTGGACCC | -0.279 |
| ACTGGTCG | -0.199 |
| GACAGCAA | -0.0376 |
| ACGGATGG | -0.0438 |
| CATTGCCC | -0.303 |
| ATGTTAAA | 0.263 |
| AGTAATCC | 0.0763 |
| AGGGCGAG | -0.332 |
| GCCTCATA | -0.0633 |
| ACGAGGGC | -0.233 |
| CCCTGATA | -0.16 |
| GAAGAGTC | -0.0764 |
| CTGATTCA | 0.0533 |
| GACTATCA | 0.0525 |
| ATCAAAAC | 0.156 |

| Sequence | PBM E-score |
| --- | --- |
| CGTCGATA | -0.153 |
| CAGTTGGA | 0.0236 |
| ACCTCTTA | 0.236 |
| AAAGGCTC | -0.153 |
| TCTCACAA | 0.0336 |
| AATGAGCT | -0.107 |
| ATCGCAAC | -0.00091 |
| AATATGCA | 0.0736 |
| ATCAGACC | -0.163 |
| GGAAGTCC | 0.159 |
| GATGTAGC | -0.249 |
| CGGCAAAA | -0.145 |
| CACGAGGC | -0.0389 |
| CAAGGTAG | -0.0887 |
| ACGAGGCA | -0.0734 |
| GGGGTCCA | -0.262 |
| GCAAAAGC | 0.0946 |
| CGGTCGTA | -0.114 |
| CAGGAGGC | -0.193 |
| GCCATCGA | -0.177 |

Reference: the supplement of paper PMC3334620
